# The supplement of paper PMC8728848
# Some of the results follow.
# B1: BT3172pd (Bacteroides thetaiotaomicron) (protein)
# chain: MLPLRAEHYYYKQISLKEGLPSNVRCILRDEQGFIWIGTKAGLGKFDGHQLKRYKHQANDPHSLLHNLIYQIAEDKQHNIWILTEKGIARYQQQSNNFTFPTDEEGNYITAYSFCLVPDGILFGGKDRIYKYSYKDSSLRLLQYFNANSFKITALSVWDSKTLLCCSRWTGLYLVDLQTGEHRRPPFDCGPEITSMITDSKNRIWIAPYSGGLRCYSRDGKLSASYTTHNSSLSNDIVLSLAEREEQLWIGTDGGGINILHPETGEISQLEYIPGRENYSLPANSILCLHNDYNNNVWAGSTCNGLISIREVSMKTYTDVVPGNDRGLSNGTVRSLYRQSPDSIWIGTDGGGINLFSPHTEKFTHYSSTWGDKVAFISGFTPGKLLISLFSKGVFVFNPATGEKQPFTIIDKETTTRLCNRGKSVNLYQNTPNTVLFLGDHIYQYHLKEKKFSTITEEEGKDIVGTLVPFDHQENLTYINDIKHIYELDDQTSRLKTVFECYTDTVISSVSHDEQGHFWIGSNFGLIHYDPVLKSRTLVPTNLFTEINMVLCDQKGKVWIGVDNMLFAYFIKEQKFVLFGESNGAIQNEYLPNARLVNEQGDAYIGGVKGMLRIDGQLLLNTSEMPELQLLDITINGESANHEWYNHPAKISVPWNSNISIRIMSREEDIFRQKIYRYQIEGLNNEYTESYNPELVIRSLLPGSYRIMASCTAKDGSWIPDQQVLELTVLPPWYRTHHHHHH
# Experiments:
# Experiment in all cases: glycan array binding signal (z-score within array); higher = stronger binding
# Settings in all cases: glycan notation: IUPAC condensed, linker removed
# Fuc(a1-2)Gal = biological target: Fuc(a1-2)Gal
# Outline: (§1)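 Negative Z-scores can be read as non-binding. The Z-score is calculated within each array and then averaged across arrays of one protein sequence at different concentrations or buffers and across linkers. Arrays, 3228 in all, were curated from the Consortium for Functional Glycomics database and kept only where the protein sequence was available.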
# Fuc(a1-2)Gal(b1-3)GalNAc = biological target: Fuc(a1-2)Gal(b1-3)GalNAc
# Outline: as §1
# [1] = biological target: Fuc(a1-2)Gal(b1-3)GalNAc(a1-3)[Fuc(a1-2)]Gal(b1-4)Glc
# Outline: as §1
# [2] = biological target: Fuc(a1-2)Gal(b1-3)GalNAc(a1-3)[Fuc(a1-2)]Gal(b1-4)GlcNAc
# Outline: as §1
# [3] = biological target: Fuc(a1-2)Gal(b1-3)GalNAc(b1-3)Gal
# Outline: as §1
# [4] = biological target: Fuc(a1-2)Gal(b1-3)GalNAc(b1-3)Gal(a1-4)Gal(b1-4)Glc
# Outline: as §1
# [5] = biological target: Fuc(a1-2)Gal(b1-3)GalNAc(b1-4)[Neu5Ac(a2-3)]Gal(b1-4)Glc
# Outline: as §1
# Fuc(a1-2)Gal(b1-3)GlcNAc = biological target: Fuc(a1-2)Gal(b1-3)GlcNAc
# Outline: as §1
# [6] = biological target: Fuc(a1-2)Gal(b1-3)GlcNAc(b1-2)Man(a1-3)[Fuc(a1-2)Gal(b1-3)GlcNAc(b1-2)Man(a1-6)]Man(b1-4)GlcNAc(b1-4)GlcNAc
# Outline: as §1
# [7] = biological target: Fuc(a1-2)Gal(b1-3)GlcNAc(b1-2)Man(a1-3)[Fuc(a1-2)Gal(b1-3)GlcNAc(b1-2)Man(a1-6)]Man(b1-4)GlcNAc(b1-4)[Fuc(a1-6)]GlcNAc
# Outline: as §1
# [8] = biological target: Fuc(a1-2)Gal(b1-3)GlcNAc(b1-3)Gal(b1-4)Glc
# Outline: as §1
# [9] = biological target: Fuc(a1-2)Gal(b1-3)GlcNAc(b1-3)GalNAc
# Outline: as §1
# [10] = biological target: Fuc(a1-2)Gal(b1-3)GlcNAc(b1-3)[Fuc(a1-2)Gal(b1-3)GlcNAc(b1-6)]GalNAc
# Outline: as §1
# [11] = biological target: Fuc(a1-2)Gal(b1-3)GlcNAc(b1-3)[Gal(b1-4)GlcNAc(b1-6)]Gal(b1-4)Glc
# Outline: as §1
# [12] = biological target: Fuc(a1-2)Gal(b1-3)GlcNAc(b1-3)[Neu5Ac(a2-6)Gal(b1-4)GlcNAc(b1-6)]Gal(b1-4)Glc
# Outline: as §1
# [13] = biological target: Fuc(a1-2)Gal(b1-3)GlcNAc6S
# Outline: as §1
# [14] = biological target: Fuc(a1-2)Gal(b1-3)[Fuc(a1-4)]GlcNAc
# Outline: as §1
# [15] = biological target: Fuc(a1-2)Gal(b1-3)[Fuc(a1-4)]GlcNAc(b1-2)Man(a1-3)[Fuc(a1-2)Gal(b1-3)[Fuc(a1-4)]GlcNAc(b1-2)Man(a1-3)]Man(b1-4)GlcNAc(b1-4)GlcNAc
# Outline: as §1
# [16] = biological target: Fuc(a1-2)Gal(b1-3)[Fuc(a1-4)]GlcNAc(b1-2)Man(a1-3)[Fuc(a1-2)Gal(b1-3)[Fuc(a1-4)]GlcNAc(b1-2)Man(a1-6)]Man(b1-4)GlcNAc(b1-4)[Fuc(a1-6)]GlcNAc(b1-4)[Fuc(a1-6)]GlcNAc
# Outline: as §1
# [17] = biological target: Fuc(a1-2)Gal(b1-3)[Fuc(a1-4)]GlcNAc(b1-3)[Fuc(a1-3)[Gal(b1-4)]GlcNAc(b1-6)]Gal(b1-4)Glc
# Outline: as §1
# [18] = biological target: Fuc(a1-2)Gal(b1-3)[Fuc(a1-4)]GlcNAc(b1-3)[Gal(b1-4)GlcNAc(b1-6)]Gal(b1-4)Glc
# Outline: as §1
# Fuc(a1-2)Gal(b1-4)Glc = biological target: Fuc(a1-2)Gal(b1-4)Glc
# Outline: as §1
# Fuc(a1-2)Gal(b1-4)Glc6S = biological target: Fuc(a1-2)Gal(b1-4)Glc6S
# Outline: as §1
# Fuc(a1-2)Gal(b1-4)GlcNAc = biological target: Fuc(a1-2)Gal(b1-4)GlcNAc
# Outline: as §1
# [19] = biological target: Fuc(a1-2)Gal(b1-4)GlcNAc(b1-2)Man
# Outline: as §1
# [20] = biological target: Fuc(a1-2)Gal(b1-4)GlcNAc(b1-2)Man(a1-3)[Fuc(a1-2)Gal(b1-4)GlcNAc(b1-2)Man(a1-6)]Man(b1-4)GlcNAc(b1-4)GlcNAc
# Outline: as §1
# [21] = biological target: Fuc(a1-2)Gal(b1-4)GlcNAc(b1-2)Man(a1-3)[Fuc(a1-2)Gal(b1-4)GlcNAc(b1-2)Man(a1-6)]Man(b1-4)GlcNAc(b1-4)[Fuc(a1-6)]GlcNAc
# Outline: as §1
# [22] = biological target: Fuc(a1-2)Gal(b1-4)GlcNAc(b1-2)[Fuc(a1-2)Gal(b1-4)GlcNAc(b1-4)]Man(a1-3)[Fuc(a1-2)Gal(b1-4)GlcNAc(b1-2)Man(a1-6)]Man(b1-4)GlcNAc(b1-4)GlcNAc
# Outline: as §1
# [23] = biological target: Fuc(a1-2)Gal(b1-4)GlcNAc(b1-3)Gal(b1-4)GlcNAc
# Outline: as §1
# [24] = biological target: Fuc(a1-2)Gal(b1-4)GlcNAc(b1-3)Gal(b1-4)GlcNAc(b1-2)Man(a1-3)[Fuc(a1-2)Gal(b1-4)GlcNAc(b1-3)Gal(b1-4)GlcNAc(b1-2)Man(a1-6)]Man(b1-4)GlcNAc(b1-4)GlcNAc
# Outline: as §1
binder,measurement,setting,value
B1,glycan array binding signal (z-score),Fuc(a1-2)Gal,-0.209
same,glycan array binding signal (z-score),Fuc(a1-2)Gal(b1-3)GalNAc,0.849
same,glycan array binding signal (z-score),[1],-0.448
same,glycan array binding signal (z-score),[2],0.168
same,glycan array binding signal (z-score),[3],-1.16
same,glycan array binding signal (z-score),[4],-0.759
same,glycan array binding signal (z-score),[5],-0.528
same,glycan array binding signal (z-score),Fuc(a1-2)Gal(b1-3)GlcNAc,-0.382
same,glycan array binding signal (z-score),[6],1.38
same,glycan array binding signal (z-score),[7],0.525
same,glycan array binding signal (z-score),[8],-0.408
same,glycan array binding signal (z-score),[9],0.048
same,glycan array binding signal (z-score),[10],1.22
same,glycan array binding signal (z-score),[11],-0.141
same,glycan array binding signal (z-score),[12],0.175
same,glycan array binding signal (z-score),[13],0.134
same,glycan array binding signal (z-score),[14],1.7
same,glycan array binding signal (z-score),[15],1.5
same,glycan array binding signal (z-score),[16],0.063
same,glycan array binding signal (z-score),[17],-0.406
same,glycan array binding signal (z-score),[18],-0.343
same,glycan array binding signal (z-score),Fuc(a1-2)Gal(b1-4)Glc,-0.491
same,glycan array binding signal (z-score),Fuc(a1-2)Gal(b1-4)Glc6S,-0.029
same,glycan array binding signal (z-score),Fuc(a1-2)Gal(b1-4)GlcNAc,-0.379
same,glycan array binding signal (z-score),[19],-0.192
same,glycan array binding signal (z-score),[20],-0.502
same,glycan array binding signal (z-score),[21],-0.484
same,glycan array binding signal (z-score),[22],-0.389
same,glycan array binding signal (z-score),[23],-0.613
same,glycan array binding signal (z-score),[24],-0.419
